Laboratory results published in PubChem BioAssay AID504332 (National Center for Advancing Translational Sciences (NCATS), 2011).
The whole screen tested about 350,000 compounds, of which about 31,000 (8.9%) were called active. The inconclusive results got no clear call from the source; some entries with a clear call stand among them for comparison. Calls follow the shape of the dose curve; as a rule, active = well fitted inhibition curve with a large enough effect; inconclusive = small, poorly fitted or top-dose-only effect; inactive = no such curve, though single readings can be large or run the other way. Where the call is inconclusive, the potency comes from a doubtful curve fit.

Target: Histone-lysine N-methyltransferase EHMT2 (Homo sapiens) (UniProt Q96KQ7)
Experiment: qHTS Assay for Inhibitors of Histone Lysine Methyltransferase G9a; also: nearly all actives have a fitted effect of over 75% in size
Details: G9a H3K9 monomethylation, AlphaScreen, 2 h; activity, negative = inhibition: at 59 µM (top of the series) unless noted
Method in brief: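 AlphaScreen detection with an anti-monomethyl H3K9 antibody quantified product after a 2 h room-temperature reaction containing 500 nM biotinylated H3K9 peptide, 20 µM SAM and 20 nM enzyme, which had been preincubated 15 min with compound.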
% is scaled to controls: 0 for no effect and ±100 for the full control effect; potency is read from the fitted curve at half-maximal effect; tags tell the direction and shape of the fitted curve.

Sequence of UniProt Q96KQ7 (Q96KQ7 whole entry, looked up): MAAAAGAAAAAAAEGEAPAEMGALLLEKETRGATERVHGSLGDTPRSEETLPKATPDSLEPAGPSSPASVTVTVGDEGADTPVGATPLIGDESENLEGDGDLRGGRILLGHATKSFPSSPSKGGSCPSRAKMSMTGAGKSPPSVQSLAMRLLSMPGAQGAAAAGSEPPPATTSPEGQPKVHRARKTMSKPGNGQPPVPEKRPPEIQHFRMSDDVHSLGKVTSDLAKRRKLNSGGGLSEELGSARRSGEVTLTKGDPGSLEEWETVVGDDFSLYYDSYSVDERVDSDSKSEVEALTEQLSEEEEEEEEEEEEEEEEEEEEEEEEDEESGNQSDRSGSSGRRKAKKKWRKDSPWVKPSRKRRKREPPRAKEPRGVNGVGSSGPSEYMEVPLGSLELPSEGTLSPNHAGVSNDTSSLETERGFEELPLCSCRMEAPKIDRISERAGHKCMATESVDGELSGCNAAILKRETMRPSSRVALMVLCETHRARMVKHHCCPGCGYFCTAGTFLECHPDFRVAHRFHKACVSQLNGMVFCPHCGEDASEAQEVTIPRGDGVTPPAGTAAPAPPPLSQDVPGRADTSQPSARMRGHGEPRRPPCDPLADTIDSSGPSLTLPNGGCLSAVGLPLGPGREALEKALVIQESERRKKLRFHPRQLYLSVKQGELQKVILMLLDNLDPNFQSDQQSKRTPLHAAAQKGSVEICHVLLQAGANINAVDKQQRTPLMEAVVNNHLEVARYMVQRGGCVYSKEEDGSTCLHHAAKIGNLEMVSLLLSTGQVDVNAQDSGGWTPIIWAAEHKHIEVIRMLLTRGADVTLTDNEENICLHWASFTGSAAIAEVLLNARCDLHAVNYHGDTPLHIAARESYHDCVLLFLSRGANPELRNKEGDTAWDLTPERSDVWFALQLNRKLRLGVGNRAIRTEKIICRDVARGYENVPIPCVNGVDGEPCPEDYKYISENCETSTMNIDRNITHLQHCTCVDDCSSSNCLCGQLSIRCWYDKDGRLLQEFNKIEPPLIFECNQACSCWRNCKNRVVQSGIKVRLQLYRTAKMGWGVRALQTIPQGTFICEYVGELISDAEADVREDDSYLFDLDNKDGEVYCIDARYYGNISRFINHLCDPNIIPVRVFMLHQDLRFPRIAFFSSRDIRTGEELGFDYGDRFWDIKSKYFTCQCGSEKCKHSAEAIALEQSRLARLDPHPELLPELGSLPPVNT

SMILES	Potency	activity, negative = inhibition
Cc1ccc(S(=O)(=O)NCc2ccco2)cc1C(N)=O	inactive	–
COC(=O)CCC(=O)NC(=S)Nc1c(C)cccc1C	inactive	–
CCn1c2ccccc2c2cc(CN3CCN(Cc4cc(OC)c(O)c(OC)c4)CC3)ccc21	active: 0.708 µM	–
Cn1nnc(NC(=S)NC(=O)c2cc(Cl)ccc2Cl)n1	active: 3.55 µM	–
c1ccc(COc2ccccc2CNc2nn[nH]n2)cc1	inconclusive: 39.8 µM [inhibitor, partial curve, poor fit]	–
COc1ccc2c(c1)c(C(=O)CNc1nc(C)cs1)c(C)n2C	active: 44.7 µM	–
CSc1nncc(/C(C)=N\Nc2cccc(C)c2)n1	inconclusive: 4.47 µM [inhibitor, partial curve, poor fit]	–
Cc1oc2ccc(O)c(CN3CCOCC3)c2c1C(=O)Nc1cccc(C(F)(F)F)c1	inconclusive: 10 µM [inhibitor, partial curve, poor fit]	–
CC(C)(C)c1nnc2sc(SCC(=O)N3CCc4ccccc43)nn2c1=O	inactive	–
CCOC(=O)c1c(C)n(C)c2ccc(OCC(O)CN3CCCCCC3)cc12 (stereo unspecified)	inconclusive: 89.1 µM [inhibitor, single point]	–
COc1c(-c2ccccc2)oc2c(ccc3occc32)c1=O	–	inactive: -8.74% [at 12.7 µM]
Cc1c(C)n(Cc2ccccc2)c2ccc(C(=O)N3CCN(c4ccc(F)cc4)CC3)cc12	inconclusive: 22.4 µM [inhibitor, single point]	–
CN1CCN(c2ccc(NC(=O)c3ccccc3Br)cc2)CC1	–	inconclusive: -51.5% [inhibitor]
CC(C)CCNC(=O)c1ccc2c(c1)NC(=O)C(C(C)C)N2 (stereo unspecified)	inactive	–
CCOc1ccc(S(=O)(=O)NCCOC)cc1C	inconclusive: 1 µM [inhibitor, partial curve, poor fit]	–
Cc1nn(-c2ccccc2)c(C)c1/C=N/N1CCN(c2ccccc2)CC1	inconclusive: 10 µM [inhibitor, partial curve, poor fit]	–
CC(=O)Nc1ccc(NC(=O)CSC2=NCCS2)cc1	inconclusive: 50.1 µM [inhibitor, partial curve]	–
COC(=O)CSc1nnc(NC(=O)c2ccc3c(c2)OCO3)s1	active: 31.6 µM	–
COc1ccc(N2CCN(C(=O)CCS(=O)(=O)c3cccc4nsnc34)CC2)cc1	inconclusive: 25.1 µM [inhibitor, single point]	–
CC(C)CN1CCc2nc(Nc3ccc(F)cc3F)ncc2C1	–	inactive: 2.8% [at 12.7 µM]
CC(C)n1c(CCC(=O)O)ccc1-c1ccccc1	inconclusive: 79.4 µM [inhibitor, partial curve, poor fit]	–
NS(=O)(=O)c1ccc(N=Nc2c(O)ccc3ccccc23)cc1	active: 35.5 µM	–
COc1ccc(-n2c(SCC(N)=O)nc3c(oc4ccccc43)c2=O)cc1	inactive	–

SMILES	Potency	activity, negative = inhibition
Cn1c(SCC(=O)NC2CCCCC2)nnc1-c1cccnc1	inconclusive: 89.1 µM [inhibitor, partial curve, poor fit]	–
Cc1ccc(S(=O)(=O)NC(CC(C)C)C(=O)N2CCOCCOCCOCCOCC2)cc1 (stereo unspecified)	inactive	–
CCCC(=O)Nc1sc(C(=O)Nc2cccc(N)c2)c(C)c1C(=O)OC	inconclusive: 89.1 µM [inhibitor, partial curve, poor fit]	–
Cc1c(C(=O)NCc2ccccn2)oc2ccc(S(=O)(=O)N3CCC4(CC3)OCCO4)cc12	inconclusive: 89.1 µM [inhibitor, partial curve, poor fit]	–
O=C(N/N=C/c1cccnc1)c1cccc(S(=O)(=O)N2CCCC2)c1	inactive	–
Cc1ccc(-c2nn(-c3ccccc3)cc2/C=C/C(=O)OCC(=O)NC2CC2)o1	inconclusive: 39.8 µM [inhibitor, partial curve]	–
Cn1cnnc1SCC(=O)c1ccco1	active: 44.7 µM	–
COc1ccc2cc(C#N)c(N3CCN(Cc4nnnn4CCC(C)C)CC3)nc2c1	inconclusive: 39.8 µM [inhibitor, single point]	–
Cc1cc(C(=O)c2ccc(Cl)cc2)c(NC(=O)CCl)s1	inconclusive: 89.1 µM [inhibitor, single point]	–
COc1ccc(NS(=O)(=O)c2cccc(C(=O)OCC(=O)N3CCN(c4ccc(OC)cc4)CC3)c2)cc1	inconclusive: 7.08 µM [inhibitor, partial curve, poor fit]	–
COc1cc(O)c(C(CCN2CCCC(C)C2)c2ccc(N(C)C)cc2)c(OC)c1 (stereo unspecified)	–	inconclusive: -84.5% [inhibitor]
COc1ccc(NC(=O)N2CC3(CCN(C(=O)c4ccco4)CC3)C2)cc1	–	inactive: 7.82% [at 12.7 µM]
Cc1cccc(NC(=O)CC2SC(=O)N(c3ccccc3)C2=O)c1 (stereo unspecified)	–	inconclusive: -85.7% [inhibitor]
Nc1nc(-c2ccco2)cs1	active: 44.7 µM	–
O=C(Cc1coc2cc3c(cc12)CCC3)OCc1cc(=O)n2c(n1)sc1ccccc12	–	inactive: -34.6% [at 12.7 µM]
CC(C)c1cc(Nc2cccc(O)c2)cc(C(C)C)c1O	inconclusive: 4.47 µM [inhibitor, single point]	–
O=S(=O)(c1cccs1)N1CN(C2CCCC2)c2nc3ccccc3nc21	inconclusive: 28.2 µM [inhibitor, full curve]	–
COc1ccc(/C=C/C(=O)N2CCCc3ccccc32)c(OC)c1	inconclusive: 35.5 µM [inhibitor, partial curve, poor fit]	–
Cc1cc(C(=O)CSc2ccc3c(c2)OCCO3)c(C)n1C1CC1	inconclusive: 3.55 µM [inhibitor, partial curve, poor fit]	–
Cc1ccc(NC(=O)C2CC(=O)n3ncnc3N2)cc1C (stereo unspecified)	active: 56.2 µM	–
CCOc1ccc(OCC)c(NC(=O)C2C3C=CC(O3)C2C(=O)NCc2ccco2)c1 (stereo unspecified)	active: 50.1 µM	–
O=C(CCn1c(=O)oc2ccccc21)NCCCN1CCN(c2ccc(F)cc2)CC1	active: 2.51 µM	–
CN(C(=O)COc1ccccc1)c1nnc(-c2cccnc2)s1	–	inactive: -24.9% [at 12.7 µM]
